The full ranking holds about 81,000 sequences; the median of “one-hybrid fitness for binding NBS DNA” is about -0.1, and the highest 2% start at about 0.36. Some of the results follow.
B1: Caulobacter ParB omega fusion; a variant is named by its letters at X, in order, B8GW30 (parent)
chain: MESVVVGEPGMSEGRRGLGRGLSALLGEVDAAPAQAPGEQLGGSREAPIEILQRNPDQPRRTFREEDLEDLSNSIREKGVLQPILVRPSPDTAGEYQIVAGERAWRAAQRAGLKTVPIMVRELDDLAVLEIGIIENVQRADLNVLEEALSYKVLMEKFERTQENIAQTIGKSXSHVANXMRLLXLPDEVQSYLVSGELTAXHARAIAAAADPVALAKQIIEGGLSVRETEALARKAPNLSAGKSKGGRPPRVKDTDTQALESDLSSVLGLDVSIDHRGSTGTLTITYATLEQLDDLCNRLTRGI

Variants of: B1
Test: one-hybrid fitness for binding NBS DNA (the Noc-binding site; scaled: cognate 1, non-cognate 0); higher = stronger binding
Details: with NBS DNA site
In short: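 On M9-minus-histidine containing 0.1 mM IPTG and 5 mM 3-AT, E. coli USO cells with a HIS3 reporter, site 19 bp from the promoter, grew 48 hours at 37°C to select Caulobacter ParB libraries randomised at four specificity codons. Plasmids from before and after were Illumina-sequenced, with three replicate libraries pooled and variants under 10 reads left out. Fitness is the log change in variant-to-wild-type read ratio, rescaled against cognate and non-cognate.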

one-hybrid fitness for binding NBS DNA, 0.283:
LTRR

one-hybrid fitness for binding NBS DNA, 0.231:
PRRT

one-hybrid fitness for binding NBS DNA, 0.29:
RMVS

one-hybrid fitness for binding NBS DNA, 0.811:
QTRS

one-hybrid fitness for binding NBS DNA, 0.586:
RCNR

one-hybrid fitness for binding NBS DNA, ≤ 0.2:
PIDY
HPMC
RLLE
PMMG
CLGG
PSPN
KVVL
QFLV
CKRC
ETMR
LTRS
PGYF
SIQW
HWLC
DGKI
PPTE
WWIG
CSVS
ANGS
AVDY
TGEE
PGYD
FATC
FRPM
DVNS
WVRR
GAGP
MGMC
LDMT
APPT
DHSC
QKGM
TVHA
INHA
DRVM
SPSA
TTFH
PKMG
HSRG
PQGC
GFSC
VEMC
LQLM
ANLT
MDMC
GSLP
QLMC
VHYA
TQPG
SCNL
PHHH
NWTY
CWPV
PRFA
DMKC
LQKN
YVRS
QAGH
TGTS
EWRR
LSAT
HTTL
RHGP
INCT
YGMC
GVEH
RFDD
SHPT
KGML
CKWR
TEPD
VYAC
ITTL
MVIS
PPPQ
AKCR
GALA
PTKF
PGIV
QWRA
FLAM
CFQI
SRDF
VWCR
AAHY
IRWS
WIIL
TSEK
SWWG
KNKG
CNHL
YLQI
RKMI
CDKV
CLKV
GLDF
EESS
YKWG
NKCC
NYSC
TVKM
ECNT
NRPS
KADR
MLYT
VVRR
LACT
CRTY
TPMM
PRIN
YSGW
FRES
WLIS
RLIN
QFGM
EVHG
DMEF
CYPV
ESQN
ANKE
WREF
RFPE
WDRY
MSWG
YAIG
QATD
GAEL
DAFG
TTKH
PYPC
PCEG
SHGF
RAAM
SSAP
KTTG
APFL
MRSE
KGED
TREN
VTCR
SALN
QKLN
VDPS
LDSY
YGPG

one-hybrid fitness for binding NBS DNA, 0.466:
RAGS

one-hybrid fitness for binding NBS DNA, 0.221:
RLWS

one-hybrid fitness for binding NBS DNA, 0.264:
QQTH

Reference: a collection of fitness landscapes (doi:10.1016/j.celrep.2020.107928)
